Source: a compilation of properties of binary mixtures (doi:10.1007/s10953-018-0729-9)
The densities may have been worked out from excess volumes.

Assay: xn = mol fraction of the nth substance listed
Settings: 101.3 kPa

Compound: O=C1CCCN1 + CCCC[n+]1ccn(C)c1.F[P-](F)(F)(F)(F)F
- mass density (303.15 K, x2 = 0): 1103.1 kg/m3
- mass density (303.15 K, x2 = 0.0494): 1134.2 kg/m3
- mass density (303.15 K, x2 = 0.1025): 1161.5 kg/m3
- mass density (303.15 K, x2 = 0.1503): 1182.2 kg/m3
- mass density (303.15 K, x2 = 0.2215): 1209 kg/m3
- mass density (303.15 K, x2 = 0.3376): 1249.1 kg/m3
- mass density (303.15 K, x2 = 0.4502): 1281.9 kg/m3
- mass density (303.15 K, x2 = 0.5654): 1309.4 kg/m3
- mass density (303.15 K, x2 = 0.6527): 1326.1 kg/m3
- mass density (303.15 K, x2 = 0.8295): 1348.9 kg/m3
- mass density (303.15 K, x2 = 0.8622): 1351.8 kg/m3
- mass density (303.15 K, x2 = 0.9019): 1355.2 kg/m3
- mass density (308.15 K, x2 = 0.1025): 1157.9 kg/m3
- mass density (308.15 K, x2 = 0.1503): 1178.6 kg/m3
- mass density (308.15 K, x2 = 0.3376): 1245.4 kg/m3
- mass density (308.15 K, x2 = 0.4502): 1278.1 kg/m3
- mass density (308.15 K, x2 = 0.5654): 1305.6 kg/m3
- mass density (308.15 K, x2 = 0.6527): 1322.2 kg/m3
- mass density (308.15 K, x2 = 0.7421): 1335.6 kg/m3
- mass density (308.15 K, x2 = 0.8295): 1345.1 kg/m3
- mass density (308.15 K, x2 = 0.8622): 1348 kg/m3
- mass density (308.15 K, x2 = 0.9019): 1351.3 kg/m3
- mass density (308.15 K, x2 = 0.9495): 1355.4 kg/m3
- mass density (313.15 K, x2 = 0): 1094.9 kg/m3
- mass density (313.15 K, x2 = 0.0494): 1126.6 kg/m3
- mass density (313.15 K, x2 = 0.1025): 1154.2 kg/m3
- mass density (313.15 K, x2 = 0.1503): 1174.9 kg/m3
- mass density (313.15 K, x2 = 0.2215): 1201.6 kg/m3
- mass density (313.15 K, x2 = 0.3376): 1241.5 kg/m3
- mass density (313.15 K, x2 = 0.6527): 1318.3 kg/m3
- mass density (313.15 K, x2 = 0.7421): 1331.8 kg/m3
- mass density (313.15 K, x2 = 0.8295): 1341.3 kg/m3
- mass density (313.15 K, x2 = 0.9019): 1347.5 kg/m3
- mass density (313.15 K, x2 = 0.9495): 1351.5 kg/m3
- mass density (318.15 K, x2 = 0): 1090.8 kg/m3
- mass density (318.15 K, x2 = 0.0494): 1122.8 kg/m3
- mass density (318.15 K, x2 = 0.1025): 1150.4 kg/m3
- mass density (318.15 K, x2 = 0.1503): 1171.1 kg/m3
- mass density (318.15 K, x2 = 0.2215): 1197.8 kg/m3
- mass density (318.15 K, x2 = 0.3376): 1237.7 kg/m3
- mass density (318.15 K, x2 = 0.4502): 1270.3 kg/m3
- mass density (318.15 K, x2 = 0.5654): 1297.7 kg/m3
- mass density (318.15 K, x2 = 0.6527): 1314.4 kg/m3
- mass density (318.15 K, x2 = 0.7421): 1327.8 kg/m3
- mass density (318.15 K, x2 = 0.8622): 1340.3 kg/m3
- mass density (318.15 K, x2 = 0.9019): 1343.6 kg/m3
- mass density (318.15 K, x2 = 0.9495): 1347.5 kg/m3
- mass density (323.15 K, x2 = 0.0494): 1118.9 kg/m3
- mass density (323.15 K, x2 = 0.1503): 1167.4 kg/m3
- mass density (323.15 K, x2 = 0.2215): 1193.9 kg/m3
- mass density (323.15 K, x2 = 0.3376): 1233.8 kg/m3
- mass density (323.15 K, x2 = 0.4502): 1266.4 kg/m3
- mass density (323.15 K, x2 = 0.5654): 1293.8 kg/m3
- mass density (323.15 K, x2 = 0.6527): 1310.5 kg/m3
- mass density (323.15 K, x2 = 0.7421): 1323.9 kg/m3
- mass density (323.15 K, x2 = 0.8622): 1336.4 kg/m3
- mass density (323.15 K, x2 = 0.9019): 1339.7 kg/m3

Compound: CCCC[n+]1ccn(C)c1.F[P-](F)(F)(F)(F)F + O=C1CCCN1
- mass density (303.15 K, x1 = 1): 1364.6 kg/m3
- mass density (308.15 K, x1 = 1): 1360.4 kg/m3
- mass density (313.15 K, x1 = 1): 1356.2 kg/m3
- mass density (318.15 K, x1 = 1): 1352.1 kg/m3
- mass density (323.15 K, x1 = 1): 1348 kg/m3
